Results published in the supplement of paper PMC10126150.
Values marked as one replicate rest on one cluster of the flow cell; about a third of the high ones do not repeat.

System: ATP
Test: switch fluorescence ratio, 500 uM ATP over buffer (Cy3 cluster intensity, sum of 5 cycles each) (fold (ratio)); higher = stronger signal-on switching upon ATP binding; sequences stand for … in TCGTCGGCAGCGTCAGATGTGTATAAGAGACAGTTTTTTTTTTTTTTTTTTTTTTTTT…TC
Conditions: aptamer strand: ATP DNA aptamer (quencher-CACCTGGGGGAGTATTGCGGAGGAAGG + anchor), 100 nM annealed; ATP concentration: 500 uM; one replicate
Procedure, shortened: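 The quencher-labelled ATP aptamer, at 100 nM, was annealed to Cy3-labelled switching-strand clusters on a modified Illumina MiSeq flow-cell. The clusters were imaged in selection buffer, then after 15 min with 500 uM ATP at 22 °C, and this buffer/ATP cycle ran five times with NaOH stripping and re-annealing between runs. Per-cluster fluorescence ratios, summed target-cycle over summed buffer-cycle Cy3 intensity, were averaged per switch-domain sequence. Clusters outside 100-1000 RFU were excluded.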
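Note: ATP exposure 15 min at 22 °C before imaging.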

Sequence	switch fluorescence ratio
CGCTTGTGCT	1.03
CCAGAATGAG	1.02
CCCCATCTTC	1.03
GTACCCGAAA	1.56
GCTATAGCTT	1.01
TAATCTCTCT	0.989
GATACATTCT	0.984
AGATAGTAGT	1.01
GATCCGGGCT	1.06
AGCTTAACAG	1.01
CCAGTTCATC	1.02
AAAGTTCTTT	0.917
CGTTTACCA	1
AGACTTCTTT	0.962
CGTCAAGGGT	0.988
GTGCACTCCG	1.18
CGTCTGGTGT	1.02
GTGTGCTGAA	1.04
TAGGATGGGA	0.942
AGGGCGCGGT	1.03
ATTTGCGGGG	0.996
GGTAGCGAG	1
CACATCCTTA	1
TTAAGGTGGG	0.996
TTCGCACCCT	1.13
CTCCTTGCC	1.02

Sequence	switch fluorescence ratio
TGGCCAAAG	1.01
ATCACTCACC	1.3
TCGGGCCTGG	1.01
CGGCGTGAC	1.15
CTGTATAAGC	1.48
TAACAGTTTT	1
AGTCTCTAG	0.983
CCTGGGGTCA	1.04
GCATAACTAC	1.41
TTGCTGTTCT	0.993
TCCTAAGTG	1.04
TCGCAGTTTT	1.06
ATCTAATCGC	1.02
GGGCTCGAGC	0.966
TACATGACGG	1.1
ACTCTGTCGG	1.11
TAGGCCGATT	1.01
CTTCAACCCG	1.07
TCTTCTTCGC	1.68
GCCGCGTAAG	1.07
TAAAAAGGT	0.95
GTGCGCCCTA	1.02
GATGTTGGCG	1.07
TTGCGGTCTT	1.05
AGGCATTGTC	1.07
AAGTCTAAGT	1.06

Sequence	switch fluorescence ratio
GAGGTCTTAA	1.01
ACCCGCGCGA	1.22
TTCCTTAAC	0.975
CGGTGGTAAG	0.982
GTTCTAATCC	1
TTTAACAGTG	1
ACGGACCCTC	1.29
TTGACAATAT	1.09
GTTTGGATGT	0.954
TCCCTGGAAT	2.08
ACTGCGCCCA	1.22
CCTGGTACAA	1.05
ACGTTGTTGC	1.01
CCTGCTCTGT	1.05
CAGGTGCCCT	1.27
GAGCTCAGGA	0.977
CCCGATTTCA	1
TCGCAGGGC	1.43
TGTGTAGAA	0.988
CGATTCATCC	1.08
TTCACAAGAA	1.01
GAGTGGATGG	1.04
GATCAAAAGA	1.03
TAGCTGAGCA	0.994
CGTTCCGGAG	2.24
TGCCACCGCA	1.3

Sequence	switch fluorescence ratio
CCAGAGAGGT	1.02
CCAACTAGGC	1.12
TTGGATCCTG	1.01
CCTGCAGGGC	1.4
CTGTGACAAC	0.998
GAGTATATA	1.02
TCAAATCGCC	1.03
TGTGCTAAC	1.12
TATCTTTTAC	1.05
CATCCATGCA	1.33
CCGCGCACGA	2.95
CTGCTGA	1.02
CATTGAGCTA	1.08
GTGGCACAGC	1.01
GGATGTGCAA	1.06
TAGAAAAGAC	2.14
AAGTCGGTTG	1.04
GATTGGCGTC	1.08
ATGACGAGTT	0.939
TCTCATGTAA	2.3
ATATCAACA	1.02
TTCGGTTACT	0.997
AGTCAGCGCG	0.986
CAGTGTTCTT	0.994
TAACTCGTGT	0.954
AGGTTTTCAT	1.03

Sequence	switch fluorescence ratio
ATAATCGCGG	0.967
TTGACGAATG	1.08
GGACCTCGGA	1
AACTAGTCAT	0.98
AATTGGCAAG	0.992
TCGAATATAC	2.95
ACTAATCATA	1.03
CGAATCCGGA	1.03
ACAGATAAGG	1.02
TGTTGGCGGA	1.06
AGCGAACGGA	1.01
CGGCGCTAAG	1.03
GCGAATTTTA	1.03
TGTTGTCAA	1.01
ACTATGCGGC	1.14
GGAGCTTTTT	1.01
GGTATCGCTA	1.02
TTCCTCATTG	1.08
TAGATCCGGT	0.984
CATTAAGATC	1.01
GGTGACACTG	0.975
GCAACTTATC	1.14
GTAAAACTGA	1.06
ATTTCCACCT	1.1
TGGGACGGTT	0.973
AGGATAGAGA	1

Sequence	switch fluorescence ratio
TCTATTACAC	1.07
AGTCTCCGTC	1.05
AGTCCGTTCG	0.985
GACTGTGCGG	1.02
GGGTAATTCT	0.995
GAGGGAGAA	0.967
TAGGATTCTA	0.983
GGGCGCTGTT	0.962
CAGGCCTGC	1.06
AACAAGGAAG	1.01
CATATCCCGG	1.01
TCGACAGAAA	0.954
AAACCACATA	1.05
ATGATCACC	1.03
TATCGTACTA	1.15
ATGGGGCTTA	1.01
CCAGACCCAA	1.14
GTGGGGCTG	0.94
AATGATTGTG	1
TAACCGTTTA	0.987
AATAACTAAG	0.994
GCGATCTTTG	1.03
GCACACATCG	1.01
TTAGCGATAG	1.23
